In publication PMC3189943, “Catalytic Properties of the Isolated Diaphorase Fragment of the NAD^+-Reducing [NiFe]-Hydrogenase from Ralstonia eutropha” (PLoS ONE, 2011) one finds Km and kcat data, which are given here for one protein.

Common to all, as to format: biochemical, Cupriavidus necator
Substrate in data set [1]: c1ccc(C[n+]2ccc(-c3cc[n+](Cc4ccccc4)cc3)cc2)cc1
Kind of data set: purified protein. The conditions noted are these: artificial electron acceptor, donor NADH, free enzyme, anaerobic, 50 mM Tris-HCl pH 8.0, 30°C.

Substrate in data set [2]: NC(=O)C1=CN([C@@H]2O[C@H](COP(=O)(O)OP(=O)(O)OC[C@H]3O[C@@H](n4cnc5c(N)ncnc54)[C@H](O)[C@@H]3O)[C@@H](O)[C@H]2O)C=CC1
Kind of data set: purified protein. The note with it: free enzyme, acceptor benzyl viologen, anaerobic, 50 mM Tris-HCl pH 8.0, 30°C.

Substrate in data set [3]: NC(=O)c1ccc[n+]([C@@H]2O[C@H](COP(=O)(O)OP(=O)(O)OC[C@H]3O[C@@H](n4cnc5c(N)ncnc54)[C@H](O)[C@@H]3O)[C@@H](O)[C@H]2O)c1
Kind of data set: protein film electrochemistry, Hanes/Woolf plot. The note with it: NAD+ reduction at -412 mV, enzyme adsorbed on graphite electrode, 50 mM Tris-HCl pH 8.0, 30°C, n = 9.

B1: HoxFU (diaphorase moiety of the NAD+-reducing soluble [NiFe]-hydrogenase, SH) (Cupriavidus necator H16) (protein)
chain: MDSRITTILERYRSDRTRLIDILWDVQHEYGHIPDAVLPQLGAGLKLSPLDIRETASFYHFFLDKPSGKYRIYLCNSVIAKINGYQAVREALERETGIRFGETDPNGMFGLFDTPCIGLSDQEPAMLIDKVVFTRLRPGKITDIIAQLKQGRSPAEIANPAGLPSQDIAYVDAMVESNVRTKGPVFFRGRTDLRSLLDQCLLLKPEQVIETIVDSRLRGRGGAGFSTGLKWRLCRDAESEQKYVICNADEGEPGTFKDRVLLTRAPKKVFVGMVIAAYAIGCRKGIVYLRGEYFYLKDYLERQLQELREDGLLGRAIGGRAGFDFDIRIQMGAGAYICGDESALIESCEGKRGTPRVKPPFPVQQGYLGKPTSVNNVETFAAVSRIMEEGADWFRAMGTPDSAGTRLLSVAGDCSKPGIYEVEWGVTLNEVLAMVGARDARAVQISGPSGECVSVAKDGERKLAYEDLSCNGAFTIFNCKRDLLEIVRDHMQFFVEESCGICVPCRAGNVDLHRKVEWVIAGKACQKDLDDMVSWGALVRRTSRCGLGATSPKPILTTLEKFPEIYQNKLVRHEGPLLPSFDLDTALGGYEKALKDLEEVTR
notes: HoxFU heterodimer without HoxHY and HoxI; N-terminal Strep-tag II on HoxF kept; plasmid pGE553, homologous overproduction in R. eutropha HF424; Strep-Tactin plus size exclusion; apparent 110 kDa; HoxF 67 kDa, HoxU 27 and 23 kDa (both with original termini, unidentified modification); FMN and Fe-S clusters; with NAD-reducing hydrogenase HoxS subunit gamma
As a reminder, the Km is the substrate concentration at which the rate is half of its maximum. As a reminder, the kcat is the maximal rate divided by the concentration of active sites. On to B1, for which the Michaelis-Menten constant (Km) was 882 µM in “purified protein [1]”, 56 µM in “purified protein [2]” and 197 ± 28 µM in data set [3]. In addition, the kcat in “purified protein [2]” amounted to 639 s⁻¹.
